# Experimental data: publication PMC12820563, “FoxP3 forms a head-to-head dimer in vivo and stabilizes its multimerization on adjacent microsatellites”
# The other results are listed elsewhere or left out.
# Target: T1, MBP-FoxP1dN (Mus musculus, UniProt P58462 326-579)
# T1 sequence: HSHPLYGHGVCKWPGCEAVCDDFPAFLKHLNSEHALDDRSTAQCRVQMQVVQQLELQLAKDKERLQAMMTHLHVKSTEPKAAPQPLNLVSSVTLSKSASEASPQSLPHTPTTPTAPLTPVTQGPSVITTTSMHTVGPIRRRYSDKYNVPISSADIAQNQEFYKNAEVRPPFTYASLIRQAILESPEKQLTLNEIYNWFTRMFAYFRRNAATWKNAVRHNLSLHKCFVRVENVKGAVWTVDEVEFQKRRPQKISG
# Assay: PD-seq (MBP pull-down with sequencing); 20 mM Tris-HCl pH 7.5, 100 mM NaCl, 1.5 mM MgCl2, 0.4 uM protein, 0.1 uM dsDNA library, 30 min, room temperature, amylose pull-down; high values mean tight binding
# Details: protein: recombinant; tags: His6-MBP; chain copies: 2; dsDNA, one strand shown
# Summary of the method: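 In Tris pH 7.5 buffer with NaCl and MgCl2, 0.4 µM His6-MBP-tagged mouse FoxP3 or FoxP1 fragment lacking the N-terminus, from E. coli, met 0.1 µM Klenow-filled double-stranded degenerate DNA library for 30 min at room temperature. Three washes on amylose resin followed capture of the complexes, then proteinase K release of DNA, PCR barcoding and Illumina sequencing. Binding is taken as pooled-replicate reads-per-million enrichment of pull-down relative to input.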
row,Sequence,binding signal
1,GATGATTGTTCTCCCAGCTGATGAATTCTGGGCGTCGAGTAAACAAATTTTCCTAATCTTTCTGTTCAAGCGCCATCTAC,0.81 RPM ratio (pull-down/input)
2,GATGATTGTTCTCCCAGCTGATGAATTGTACCTCTCGAGTAAACAAATTTTCCTAATCTTTCTGTTCAAGCGCCATCTAC,0.934 RPM ratio (pull-down/input)
3,GATGATTGTTCTCCCAGCTGATGAATTCCACGCTTCGAGTAAACAAATTTTCCTAATCTTTCTGTTCAAGCGCCATCTAC,0.913 RPM ratio (pull-down/input)
4,GATGATTGTTCTCCCAGCTGATGAATTTTGCTATTCGAGTAAACAAATTTTCCTAATCTTTCTGTTCAAGCGCCATCTAC,1.32 RPM ratio (pull-down/input)
5,GATGATTGTTCTCCCAGCTGATGAATTTTTTTTGTCGAGTAAACAAATTTTCCTAATCTTTCTGTTCAAGCGCCATCTAC,0.87 RPM ratio (pull-down/input)
6,GATGATTGTTCTCCCAGCTGATGAATTAATTTATTCGAGTAAACAAATTTTCCTAATCTTTCTGTTCAAGCGCCATCTAC,1.06 RPM ratio (pull-down/input)
7,GATGATTGTTCTCCCAGCTGATGAATTTTACTAATCGAGTAAACAAATTTTCCTAATCTTTCTGTTCAAGCGCCATCTAC,1.14 RPM ratio (pull-down/input)
8,GATGATTGTTCTCCCAGCTGATGAATTCATAGGATCGAGTAAACAAATTTTCCTAATCTTTCTGTTCAAGCGCCATCTAC,0.848 RPM ratio (pull-down/input)
9,GATGATTGTTCTCCCAGCTGATGAATTCACTCTGTCGAGTAAACAAATTTTCCTAATCTTTCTGTTCAAGCGCCATCTAC,0.841 RPM ratio (pull-down/input)
10,GATGATTGTTCTCCCAGCTGATGAATTCACCTACTCGAGTAAACAAATTTTCCTAATCTTTCTGTTCAAGCGCCATCTAC,0.921 RPM ratio (pull-down/input)
11,GATGATTGTTCTCCCAGCTGATGAATTATCAATATCGAGTAAACAAATTTTCCTAATCTTTCTGTTCAAGCGCCATCTAC,1.96 RPM ratio (pull-down/input)
12,GATGATTGTTCTCCCAGCTGATGAATTGAGGCGTTCGAGTAAACAAATTTTCCTAATCTTTCTGTTCAAGCGCCATCTAC,0.946 RPM ratio (pull-down/input)
13,GATGATTGTTCTCCCAGCTGATGAATTCGTAATCTCGAGTAAACAAATTTTCCTAATCTTTCTGTTCAAGCGCCATCTAC,0.951 RPM ratio (pull-down/input)
14,GATGATTGTTCTCCCAGCTGATGAATTCGTTAGTTCGAGTAAACAAATTTTCCTAATCTTTCTGTTCAAGCGCCATCTAC,0.899 RPM ratio (pull-down/input)
15,GATGATTGTTCTCCCAGCTGATGAATTTGAACCTTCGAGTAAACAAATTTTCCTAATCTTTCTGTTCAAGCGCCATCTAC,0.834 RPM ratio (pull-down/input)
16,GATGATTGTTCTCCCAGCTGATGAATTTCCCATATCGAGTAAACAAATTTTCCTAATCTTTCTGTTCAAGCGCCATCTAC,0.915 RPM ratio (pull-down/input)
17,GATGATTGTTCTCCCAGCTGATGAATTGAGTTCGTCGAGTAAACAAATTTTCCTAATCTTTCTGTTCAAGCGCCATCTAC,0.82 RPM ratio (pull-down/input)
18,GATGATTGTTCTCCCAGCTGATGAATTTCTATCCTCGAGTAAACAAATTTTCCTAATCTTTCTGTTCAAGCGCCATCTAC,0.887 RPM ratio (pull-down/input)
19,GATGATTGTTCTCCCAGCTGATGAATTATCTATTTCGAGTAAACAAATTTTCCTAATCTTTCTGTTCAAGCGCCATCTAC,1.03 RPM ratio (pull-down/input)
20,GATGATTGTTCTCCCAGCTGATGAATTCGTTACCTCGAGTAAACAAATTTTCCTAATCTTTCTGTTCAAGCGCCATCTAC,0.98 RPM ratio (pull-down/input)

row,Sequence,binding signal
1,GATGATTGTTCTCCCAGCTGATGAATTGTGTCCCTCGAGTAAACAAATTTTCCTAATCTTTCTGTTCAAGCGCCATCTAC,1.12 RPM ratio (pull-down/input)
2,GATGATTGTTCTCCCAGCTGATGAATTTAATAGTTCGAGTAAACAAATTTTCCTAATCTTTCTGTTCAAGCGCCATCTAC,0.986 RPM ratio (pull-down/input)
3,GATGATTGTTCTCCCAGCTGATGAATTTACGGTTTCGAGTAAACAAATTTTCCTAATCTTTCTGTTCAAGCGCCATCTAC,1.24 RPM ratio (pull-down/input)
4,GATGATTGTTCTCCCAGCTGATGAATTGGCCCTATCGAGTAAACAAATTTTCCTAATCTTTCTGTTCAAGCGCCATCTAC,0.846 RPM ratio (pull-down/input)
5,GATGATTGTTCTCCCAGCTGATGAATTCGGTTATTCGAGTAAACAAATTTTCCTAATCTTTCTGTTCAAGCGCCATCTAC,0.93 RPM ratio (pull-down/input)
6,GATGATTGTTCTCCCAGCTGATGAATTAGCCTTCTCGAGTAAACAAATTTTCCTAATCTTTCTGTTCAAGCGCCATCTAC,0.881 RPM ratio (pull-down/input)
7,GATGATTGTTCTCCCAGCTGATGAATTAGGAGCCTCGAGTAAACAAATTTTCCTAATCTTTCTGTTCAAGCGCCATCTAC,0.863 RPM ratio (pull-down/input)
8,GATGATTGTTCTCCCAGCTGATGAATTTTGTCCATCGAGTAAACAAATTTTCCTAATCTTTCTGTTCAAGCGCCATCTAC,1.02 RPM ratio (pull-down/input)
9,GATGATTGTTCTCCCAGCTGATGAATTTCCCAAATCGAGTAAACAAATTTTCCTAATCTTTCTGTTCAAGCGCCATCTAC,0.978 RPM ratio (pull-down/input)
10,GATGATTGTTCTCCCAGCTGATGAATTCGTTCCCTCGAGTAAACAAATTTTCCTAATCTTTCTGTTCAAGCGCCATCTAC,0.888 RPM ratio (pull-down/input)
11,GATGATTGTTCTCCCAGCTGATGAATTGCTGTTCTCGAGTAAACAAATTTTCCTAATCTTTCTGTTCAAGCGCCATCTAC,1.21 RPM ratio (pull-down/input)
12,GATGATTGTTCTCCCAGCTGATGAATTCTTTCCCTCGAGTAAACAAATTTTCCTAATCTTTCTGTTCAAGCGCCATCTAC,0.841 RPM ratio (pull-down/input)
13,GATGATTGTTCTCCCAGCTGATGAATTACAAAGCTCGAGTAAACAAATTTTCCTAATCTTTCTGTTCAAGCGCCATCTAC,1.25 RPM ratio (pull-down/input)
14,GATGATTGTTCTCCCAGCTGATGAATTAGTAGCCTCGAGTAAACAAATTTTCCTAATCTTTCTGTTCAAGCGCCATCTAC,0.933 RPM ratio (pull-down/input)
15,GATGATTGTTCTCCCAGCTGATGAATTAAGAAGGTCGAGTAAACAAATTTTCCTAATCTTTCTGTTCAAGCGCCATCTAC,0.734 RPM ratio (pull-down/input)
16,GATGATTGTTCTCCCAGCTGATGAATTGTGTGATTCGAGTAAACAAATTTTCCTAATCTTTCTGTTCAAGCGCCATCTAC,1.2 RPM ratio (pull-down/input)
17,GATGATTGTTCTCCCAGCTGATGAATTTATACAGTCGAGTAAACAAATTTTCCTAATCTTTCTGTTCAAGCGCCATCTAC,1.14 RPM ratio (pull-down/input)
18,GATGATTGTTCTCCCAGCTGATGAATTACGAAGGTCGAGTAAACAAATTTTCCTAATCTTTCTGTTCAAGCGCCATCTAC,0.909 RPM ratio (pull-down/input)
19,GATGATTGTTCTCCCAGCTGATGAATTGCAGAGCTCGAGTAAACAAATTTTCCTAATCTTTCTGTTCAAGCGCCATCTAC,0.921 RPM ratio (pull-down/input)
20,GATGATTGTTCTCCCAGCTGATGAATTAATGACATCGAGTAAACAAATTTTCCTAATCTTTCTGTTCAAGCGCCATCTAC,1.13 RPM ratio (pull-down/input)
